Data: the supplement of paper PMC8285479
Where a name gives a salt, the structure may show the parent alone. ± gives the standard deviation of the averaged measurements. Over roughly 1,900 compounds, “normalised cell viability (NPI; 0 = phenylarsine oxide control, 1 = DMSO control)” has its median near 1; the lowest 2% begin near 0.039. The list shows a part of the results.

Test system: NCI-H1944
Assay: normalised cell viability (NPI; 0 = phenylarsine oxide control, 1 = DMSO control) (fraction of DMSO control); NCI-H1944 is a non-small cell lung cancer line; higher = more viable cells (less compound toxicity)
Conditions: 6 days
[1] = glucocorticoid arm: hydrocortisone 2.75 uM co-treatment, compound 1 µM
[2] = glucocorticoid arm: hydrocortisone 2.75 uM co-treatment, compound 5 µM
[3] = glucocorticoid arm: hydrocortisone 2.75 uM pre-treated 2 days and continued, compound 1 µM
[4] = glucocorticoid arm: hydrocortisone 2.75 uM pre-treated 2 days and continued, compound 5 µM
[5] = glucocorticoid arm: vehicle, compound 1 µM
[6] = glucocorticoid arm: vehicle, compound 5 µM
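Also: CTB read-out in 384-well plates, mean of triplicate wells, normalised per plate against 1 µM phenylarsine oxide and 0.1% DMSO, compounds added 24 h after seeding.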

Row | SMILES | normalised cell viability [1] | normalised cell viability [2] | normalised cell viability [3] | normalised cell viability [4] | normalised cell viability [5] | normalised cell viability [6]
1 | CCCN(CCC)[C@@H]1CCc2cccc(O)c2C1 [R-(+)-8-Hydroxy-DPAT hydrobromide] | 0.995 ± 0.0087 | 0.972 ± 0.017 | 0.9973 ± 0.0046 | 0.996 ± 0.015 | 1.013 ± 0.0058 | 1.002 ± 0.0076
2 | C#CCN[C@H](C)Cc1ccccc1 [R-(-)-Desmethyldeprenyl hydrochloride] | 0.9987 ± 0.0015 | 1.001 ± 0.009 | 1.01 | 0.9983 ± 0.0015 | 0.9947 ± 0.0046 | 0.9967 ± 0.004
3 | Cc1nnc2ccc(-c3cccc(C(F)(F)F)c3)nn12 | 1.01 ± 0.012 | 1.01 ± 0.01 | 1.01 ± 0.01 | 1.04 ± 0.088 | 0.9913 ± 0.0064 | 0.993 ± 0.015
4 | C#C[C@]1(O)C=C[C@H]2[C@@H]3CCC4=CC(=O)CC[C@@H]4[C@H]3CC[C@@]21CC [Gestodene] | 1.01 ± 0.011 | 1.04 ± 0.015 | 1.02 ± 0.017 | 1.03 ± 0.017 | 1.003 ± 0.0064 | 0.9813 ± 0.0075
5 | Cc1cccc([C@H](C)c2c[nH]cn2)c1C [Dexmedetomidine] | 1.02 ± 0.01 | 1.06 ± 0.023 | 1.01 ± 0.011 | 1.02 ± 0.025 | 1.013 ± 0.0058 | 1.03 ± 0.01
6 | CC(C)(C)NCC(O)c1ccccc1Cl (stereo not drawn) [Tulobuterol hydrochloride] | 0.9983 ± 0.0029 | 0.977 ± 0.022 | 0.932 ± 0.12 | 1.01 ± 0.012 | 0.98967 ± 0.00058 | 0.9967 ± 0.0042
7 | CC1(C(=O)O)C2CCC(O2)C1(C)C(=O)O (stereo not drawn) [Cantharidic Acid] | 0.983 ± 0.016 | 0.0223 ± 0.0017 | 1.06 ± 0.015 | 0.137 ± 0.087 | 0.965 ± 0.025 | 0.0108 ± 0.0036
8 | Oc1ccc2c3c1O[C@H]1c4oc5ccccc5c4C[C@@]4(O)[C@@H](C2)N(CC2CC2)CC[C@]314 [Naltriben methanesulfonate] | 0.998 ± 0.0035 | 1.02 ± 0.025 | 1.01 | 1.09 ± 0.072 | 0.9913 ± 0.0049 | 1.01 ± 0.013
9 | O=P1(NCCCl)OCCCN1CCCl (stereo not drawn) [Ifosfamide] | 1.02 ± 0.01 | 0.986 ± 0.022 | 0.9973 ± 0.0046 | 0.994 ± 0.014 | 1.006 ± 0.0075 | 1.001 ± 0.0081
10 | N#CCCN [3-Aminopropionitrile fumarate] | 0.9843 ± 0.0081 | 0.981 ± 0.017 | 0.978 ± 0.012 | 0.985 ± 0.018 | 0.983 ± 0.018 | 0.9823 ± 0.0025
11 | NC(=O)CN1CCCC1=O [Piracetam] | 1.02 ± 0.01 | 1.027 ± 0.0058 | 1.017 ± 0.0058 | 1.027 ± 0.0058 | 1.007 ± 0.0058 | 1.01 ± 0.017
12 | NCc1cc(O)no1 [Muscimol hydrobromide] | 1.006 ± 0.0069 | 0.993 ± 0.015 | 1.01 ± 0.013 | 0.992 ± 0.031 | 1.01 | 1.003 ± 0.0061
13 | CC(=O)NBr [N-Bromoacetamide] | 0.992 ± 0.016 | 0.9953 ± 0.005 | 1 ± 0.017 | 1.025 ± 0.0071 | 0.9947 ± 0.0092 | 1.013 ± 0.0058
14 | CC(C)NP(=O)(NC(C)C)OP(=O)(NC(C)C)NC(C)C [Tetraisopropyl pyrophosphoramide] | 1.01 | 1.01 | 1.03 ± 0.026 | 1.037 ± 0.0058 | 1.013 ± 0.0058 | 1.005 ± 0.0087
15 | C=CCc1ccccc1OCC(O)CNC1(C)CCC(C(C)(C)NC(=O)CBr)CC1 (stereo not drawn) [Bromoacetyl alprenolol menthane] | 0.9893 ± 0.0093 | -0.000605 ± 0.0006 | 0.994 ± 0.016 | 0.0027 ± 0.0058 | 0.978 ± 0.004 | -0.000518 ± 0.00015
16 | Cc1c2ccncc2c(C)c2c1[nH]c1ccccc12 [Ellipticine] | 0.843 ± 0.013 | 0.381 ± 0.026 | 0.979 ± 0.013 | 1 ± 0.014 | 0.701 ± 0.032 | 0.23 ± 0.018
17 | CN[C@@H]1C[C@H]2O[C@@](C)([C@@H]1OC)n1c3ccccc3c3c4c(c5c6ccccc6n2c5c31)C(=O)NC4 [Staurosporine] | 0.0825 ± 0.0098 | 0.0186 ± 0.003 | 0.246 ± 0.01 | 0.0923 ± 0.017 | 0.0216 ± 0.0022 | 0.00445 ± 0.0013
18 | Cc1c(N)nc([C@H](CC(N)=O)NC[C@H](N)C(N)=O)nc1C(=O)N[C@H](C(=O)N[C@H](C)[C@@H](O)[C@H](C)C(=O)N[C@H](C(=O)NCCc1nc(-c2nc(C(=O)NCCC[S+](C)C)cs2)cs1)[C@@H](C)O)[C@@H](OC1OC(CO)C(O)C(O)C1OC1OC(CO)C(O)C(OC(N)=O)C1O)c1cnc[nH]1 (stereo partly drawn) [Bleomycin sulfate] | 0.669 ± 0.048 | 0.196 ± 0.017 | 0.9903 ± 0.0051 | 0.637 ± 0.034 | 0.142 ± 0.024 | 0.0339 ± 0.0093
19 | O=C(O[C@H]1C[N+]2(CCCOc3ccccc3)CCC1CC2)C(O)(c1cccs1)c1cccs1 [Aclidinium Bromide] | 1.01 ± 0.017 | 0.975 ± 0.02 | 1.033 ± 0.0058 | 0.971 ± 0.034 | 0.9967 ± 0.0058 | 0.9883 ± 0.0051
20 | Oc1ncc(N(CCCl)CCCl)c(O)n1 [Uracil mustard] | 0.972 ± 0.007 | 1.06 ± 0.011 | 1.043 ± 0.0058 | 1.033 ± 0.0058 | 0.244 ± 0.021 | 1.01 ± 0.011
21 | NCCc1c[nH]c2ccccc12 [Tryptamine hydrochloride] | 1.01 ± 0.01 | 1.03 ± 0.015 | 0.9993 ± 0.0093 | 1.025 ± 0.0071 | 0.998 ± 0.011 | 0.99967 ± 0.00058
22 | Cc1ccc(S(=O)(=O)N[C@@H](CCCCN)C(=O)CCl)cc1 [Na-p-Tosyl-L-lysine chloromethyl ketone hydrochloride] | 1.005 ± 0.0092 | 1.03 ± 0.026 | 0.859 ± 0.25 | 1.02 ± 0.011 | 1.01 ± 0.011 | 1.001 ± 0.0076
23 | CCCN1CCC[C@@H](c2cccc(O)c2)C1 [S(-)-3PPP hydrochloride] | 0.987 ± 0.003 | 0.974 ± 0.015 | 1 ± 0.023 | 0.972 ± 0.023 | 0.9953 ± 0.0042 | 0.9813 ± 0.0076
24 | Cc1cccc(C)c1NC1=NCCCS1 [Xylazine hydrochloride] | 1.017 ± 0.0058 | 1.013 ± 0.0058 | 0.929 ± 0.17 | 1.047 ± 0.0058 | 1.033 ± 0.0058 | 1.03
25 | Cc1cccc(C)c1NC1=NCCCS1 [Xylazine HCl] | 1.03 ± 0.017 | 1.02 ± 0.011 | 1.017 ± 0.0058 | 1.01 ± 0.018 | 1.01 | 0.9963 ± 0.0047
26 | Clc1ccc(N2CC3CCC(C2)N3)nn1 | 1.003 ± 0.0064 | 0.979 ± 0.012 | 0.9903 ± 0.0074 | 0.9827 ± 0.004 | 0.9863 ± 0.0075 | 0.9843 ± 0.0086
27 | CCNC(=O)[C@H]1O[C@@H](n2cnc3c(N)ncnc32)[C@H](O)[C@@H]1O [5'-N-Ethylcarboxamidoadenosine] | 1.006 ± 0.0069 | 1.01 ± 0.011 | 1.007 ± 0.0058 | 1.01 ± 0.024 | 1.003 ± 0.0058 | 1.006 ± 0.0063
28 | O=C1CCC[C@@H]2[C@H]3CCCN4CCC[C@@H](CN12)[C@@H]34 [(+)-Matrine] | 1.02 ± 0.01 | 1.02 ± 0.011 | 1.017 ± 0.0058 | 1.02 ± 0.017 | 0.999 ± 0.011 | 0.9893 ± 0.0059
